We go through two molecules from paper PMC5006159, “Structural basis for early-onset neurological disorders caused by mutations in human selenocysteine synthase” (Scientific Reports, 2016).

Chains of the proteins cited; added tags and fusions are not shown.
UniProt P0A6F5: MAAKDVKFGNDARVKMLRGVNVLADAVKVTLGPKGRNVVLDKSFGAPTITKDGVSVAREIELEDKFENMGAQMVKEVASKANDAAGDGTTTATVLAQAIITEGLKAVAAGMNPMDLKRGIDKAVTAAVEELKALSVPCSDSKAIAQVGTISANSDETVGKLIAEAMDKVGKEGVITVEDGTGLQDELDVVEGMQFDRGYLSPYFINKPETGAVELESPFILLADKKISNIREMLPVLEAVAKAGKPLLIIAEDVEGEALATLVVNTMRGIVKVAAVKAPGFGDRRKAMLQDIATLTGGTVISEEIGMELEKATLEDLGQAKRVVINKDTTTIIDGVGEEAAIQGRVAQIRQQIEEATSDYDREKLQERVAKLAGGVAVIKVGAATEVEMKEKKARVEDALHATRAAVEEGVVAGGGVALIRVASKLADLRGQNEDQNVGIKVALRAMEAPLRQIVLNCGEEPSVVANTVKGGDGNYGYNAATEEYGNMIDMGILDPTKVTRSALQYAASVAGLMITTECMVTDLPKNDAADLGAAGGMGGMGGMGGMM

Positions count from the first letter of the chain named. These are yes or no findings as the source states them, for the method shown. Some entries that bind do so weakly or less than the wild type.

For assay [1], the target named is T1, human O-phosphoseryl-tRNASec:selenocysteinyl-tRNASec synthase (SepSecS), wild type (human) (UniProt Q9HD40).
T1 sequence: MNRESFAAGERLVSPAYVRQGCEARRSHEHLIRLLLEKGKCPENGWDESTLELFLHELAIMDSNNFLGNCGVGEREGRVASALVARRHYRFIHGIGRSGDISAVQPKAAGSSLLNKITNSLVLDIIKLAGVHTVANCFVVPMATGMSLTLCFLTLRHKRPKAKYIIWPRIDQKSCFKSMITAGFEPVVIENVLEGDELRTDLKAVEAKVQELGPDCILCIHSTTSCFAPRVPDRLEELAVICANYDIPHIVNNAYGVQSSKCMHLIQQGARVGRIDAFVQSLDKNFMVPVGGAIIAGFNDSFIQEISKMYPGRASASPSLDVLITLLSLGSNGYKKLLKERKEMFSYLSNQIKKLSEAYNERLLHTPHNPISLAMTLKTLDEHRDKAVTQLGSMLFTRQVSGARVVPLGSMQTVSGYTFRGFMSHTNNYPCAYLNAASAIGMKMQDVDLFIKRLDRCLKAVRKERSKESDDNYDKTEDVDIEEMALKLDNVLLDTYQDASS
In words: native gel or EMSA; blue-native PAGE of the SEC peaks, Western blot with anti-GroEL and anti-His; complex with host GroEL (~720 kDa band) formed in the expression host. In general terms: Mobility shift assays separate free from complexed probe on a gel.

Assay [2] has as its target T2, human SepSecS Ala239Thr variant (human) (UniProt Q9HD40).
T2 sequence: T1 sequence with A239T
Described as above.

For assay [3], the target named is T3, human SepSecS Tyr334Cys variant (human) (UniProt Q9HD40).
T3 sequence: T1 sequence with Y334C
The assay is described as above.

The target of assay [4] is T1, human O-phosphoseryl-tRNASec:selenocysteinyl-tRNASec synthase (SepSecS), wild type (human). As to the kind of experiment: SEC; His-tagged SepSecS purified from the soluble fraction of E. coli and run on S200 SEC; peaks analysed by SDS-PAGE and Western blot with anti-His and anti-GroEL; GroEL of the host co-purified. (In gel filtration, larger molecules generally elute earlier.)

The target in assay [5] is T2, human SepSecS Ala239Thr variant (human). Described as above.
The target in assay [6] is T4, human SepSecS Thr325Ser variant (human) (UniProt Q9HD40).
T4 sequence: T1 sequence with T325S
Described as above.

Assay [7] concerns the target T3, human SepSecS Tyr334Cys variant (human). The assay is described as above.
For assay [8], the target named is T2, human SepSecS Ala239Thr variant (human). In words: SEC; S200 SEC of the soluble, purified His-tagged SepSecS samples; tetramer peak at ~70 min, 'early' peak at ~55 min; self-association; both purified.
The target is the same in assay [9]. In words: native gel or EMSA; 6% blue-native Tris-glycine PAGE of the SEC peaks, Coomassie stain and anti-His blot; self-association (tetramer band between 242-480 kDa); both purified.

Regarding “bacterial chaperonin GroEL (from UniProt P0A6F5 1-548)”, the binding result is on record as “no binding” in [1]; “binds” in assay [2]; “binds” in assay [3]; “no binding” in assay [4]; “binds” in assay [5]; “binds” in assay [6]. In assay [7], the binding entry is on record as “binds”.

B1: human SepSecS Ala239Thr variant (enzyme, UniProt Q9HD40 1-501)
chain: T1 sequence with A239T
For the molecule B1, the binding entry in [8] and in [9] was “no binding” in each case.
